According to PubChem BioAssay AID504832 (National Center for Advancing Translational Sciences (NCATS), 2011):
Hit rate of the full screen: of about 310,000 compounds, about 18,000 (5.8%) were called active. Inconclusive results, whose numbers are uncertain, are shown with a selection of clear calls. Calls follow the shape of the dose curve; as a rule, active = well fitted inhibition curve with a large enough effect; inconclusive = small, poorly fitted or top-dose-only effect, or another doubt; inactive = no such curve, though single readings can be large or run the other way. Potencies of inconclusive entries are left out as doubtful fits.

assay: Primary qHTS for delayed death inhibitors of the malarial parasite plastid, 48 hour incubation; details: P. falciparum luciferase growth in erythrocytes; series mostly up to 28.7 µM
How it was run: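 Here the parasites carry a stable luciferase gene and grow inside erythrocytes in Albumax-based RPMI medium with compound for one erythrocytic cycle. Activity is scored as loss of luminescent signal.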
Potency is read from the fitted curve at half-maximal effect; tags tell the direction and shape of the fitted curve.

Row | SMILES | Potency
1 | CCOC(=O)c1c(CN2CCC(C)CC2)n(C)c2cc(Br)c(OC)cc12 | inconclusive [inhibitor, single point]
2 | O=[N+]([O-])c1ccc(Sc2cccc3cccnc23)c2cccnc12 | inconclusive [inhibitor, partial curve, poor fit]
3 | O=C1/C(=C/c2ccccc2[N+](=O)[O-])COc2ccccc21 | inconclusive [inhibitor, single point]
4 | CC(Oc1ccc(Cl)cc1)C(=O)N1CCCc2ccccc21 (stereo not drawn) | inconclusive [inhibitor, partial curve, poor fit]
5 | COC(=O)c1ccccc1NC(=O)Cn1c(-c2nonc2N)nc2ccccc21 | inconclusive [inhibitor, single point]
6 | CC(=O)c1ccc(OCCCC(=O)N2CCN(S(=O)(=O)c3cc(C)ccc3C)CC2)cc1 | inconclusive [inhibitor, partial curve, poor fit]
7 | CCOC(=O)c1c(S(=O)(=O)N2CCCC(C(=O)Nc3cccc(C)n3)C2)c(C)n(C)c1C (stereo not drawn) | inconclusive [inhibitor, partial curve, poor fit]
8 | COC(=O)c1nccnc1C(=O)Nc1ccccc1N1CCOCC1 | inactive
9 | Cc1ccc(OCC(=O)N/N=C/c2ccncc2)cc1C | inconclusive [inhibitor, partial curve, poor fit]
10 | Cc1[nH]c2ccccc2c1-c1nc2ccccc2[nH]c1=O | inactive
11 | Cc1nn(-c2ccccc2)c(C)c1/C=N/NC(=O)c1cc(-c2ccccc2)n[nH]1 | active: 14.7 µM
12 | Cc1nc(-c2cc(C#N)c(Sc3ccc(Cl)cc3Cl)nc2C)cs1 | inconclusive [inhibitor, partial curve, poor fit]
13 | NC(=O)c1nsc(C(=O)N(c2ccc(F)cc2)C(C(=O)NCC2CCCO2)c2ccc3ncccc3c2)c1N (stereo not drawn) | inconclusive [inhibitor, partial curve]
14 | COc1ccc2nc(C)cc(N/N=C/c3cccc(OC)c3O)c2c1 | active: 0.0928 µM
15 | Cc1ccc(NC(=O)c2cc(-c3ccccc3O)n[nH]2)cc1Cl | inconclusive [inhibitor, full curve]
16 | COc1cccc(NC(=O)CS(=O)(=O)c2cn(CC(=O)N3CCOCC3)c3ccccc23)c1 | inconclusive [inhibitor, full curve, poor fit]
17 | Cn1c(N)c(C(=O)COC(=O)C2=NNC(=O)CC2)c(=O)n(C)c1=O | inactive
18 | O=C(Nc1ccc(F)c(Cl)c1)c1cccnc1 | inactive
19 | CCC(=O)O[C@]1(C(=O)CCl)[C@@H](C)CC2C3C[C@H](F)C4=CC(=O)C=CC4(C)[C@@]3(F)C(O)CC21C (stereo partly drawn) | active: 1.9 µM
20 | C/C(=N\NC(=O)C1CC1)c1ccc(OC(F)F)cc1 | inconclusive [inhibitor, single point]
21 | Cc1cc(C)nc(SSc2nc(C)cc(C)n2)n1 | inconclusive [inhibitor, partial curve, poor fit]
22 | COc1ccc(C(C(=O)NC2CCCCC2)N(CC2CCCO2)C(=O)C2COc3ccccc3O2)cc1OC (stereo not drawn) | active: 11.7 µM

Row | SMILES | Potency
23 | COc1ccccc1NC(=O)Cn1cc(C(=O)C2CC2)c2ccccc21 | inconclusive [inhibitor, single point]
24 | COc1cc(C(=O)N/N=C(\C)c2ccccn2)cc(OC)c1OC | inactive
25 | CCCCNc1nc(Nc2ccc(C)c(Cl)c2)c2cnn(C)c2n1 | inconclusive [inhibitor, single point]
26 | Cc1nc(NCc2ccccn2)c2c3c(sc2n1)CCCC3 | inconclusive [inhibitor, full curve]
27 | CC(=O)N1CCOc2ccc(S(=O)(=O)NCC3CCC(C(=O)NCCC(C)C)CC3)cc21 (stereo not drawn) | inconclusive [inhibitor, single point]
28 | N#Cc1c(NC(=O)CCCN2C(=O)c3ccccc3C2=O)oc(-c2ccccc2)c1-c1ccccc1 | inactive
29 | O=C(CSc1nc(=O)n(CCCN2CCOCC2)c2c1CCC2)Nc1ccc([N+](=O)[O-])cc1 | inconclusive [inhibitor, single point]
30 | OC(c1ccc(Cl)cc1Cl)C(Cc1cccnc1)n1cncn1 (stereo not drawn) | inconclusive [inhibitor, partial curve, poor fit]
31 | COc1ccc(C2N(C(=O)N(C)C)CCN2S(=O)(=O)c2ccc(OC)cc2)cc1 (stereo not drawn) | inconclusive [inhibitor, single point]
32 | Cn1cc(C2N3CC4(C)CN2CC(C)(C3)C4=O)c2ccccc21 (stereo not drawn) | inactive
33 | CCSc1ncc(CO)c(N)n1 | inactive
34 | CCOC(=O)c1ccc(NC(=O)c2ccc(NC(=O)C3CCCO3)cc2)cc1 (stereo not drawn) | inconclusive [inhibitor, single point]
35 | CC1(C)c2[nH]c3ccccc3c2C[C@H]2C(=O)N(CCCCCO)CC(=O)N21 | inconclusive [inhibitor, partial curve, poor fit]
36 | O=C(Oc1c(Br)cc(C(=S)N2CCOCC2)cc1Br)c1ccc(Cl)cc1 | inconclusive [inhibitor, single point]
37 | CC1=Nc2nc(N3CCCCC3)c(C#N)c3c4c(nc(c23)N1)N(c1ccc(C(C)C)cc1)C(=O)C4 | inconclusive [inhibitor, full curve, poor fit]
38 | COc1ccc(CCCC(=O)NCc2ccccc2)cc1C | inactive
39 | Cc1ccc2c(c1)nnn2C1CCN(S(=O)(=O)c2ccc(C(=O)O)cc2)CC1 | inactive
40 | CC1CCCC(NC(=O)CNC(=O)c2cccs2)C1C (stereo not drawn) | inactive
41 | COC(=O)C(Cc1cncn1COCc1ccccc1)NC(=O)OC(C)(C)C (stereo not drawn) | inconclusive [inhibitor, single point]
42 | Nc1nc2n(n1)C1(CCCCC1)C1=C(CCCC1)N2 | inactive
43 | COc1ccc(/C=C2/Sc3ccc(C(=O)NCCCN4CCOCC4)cc3NC2=O)cc1OC | inconclusive [inhibitor, full curve]
